According to PubChem BioAssay AID1963576 (National Center for Advancing Translational Sciences (NCATS), 2024):
Screen size: about 46,000 compounds; about 60 (0.1%) were called active. Roughly 3% stayed inconclusive and do not appear here. The call rests on the fitted dose curve; in most records, active means well fitted inhibition curve with a large enough effect; inconclusive means small, poorly fitted or top-dose-only effect; inactive means no such curve, though single readings can be large or run the other way. This is one part of the list.

Test: Primary qHTS assay for Inhibitors of ovarian cancer metastasis using an organotypic tumor microenvironment (TME) model. Further: nearly all actives have a fitted effect of over 65% in size.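 On Potency: count of GFP cancer cells still attached after washing and fixation.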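 On activity change, negative = inhibition: plate controls were DMSO wells for no effect and tomatine positive control wells for full effect.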
Settings: SKOV3ip1-GFP adhesion/invasion on 3D omental model, fluorescence; series mostly up to 45.8 µM; activity change, negative = inhibition: at the top concentration
Outline: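 Primary human omental fibroblast/mesothelial 3D culture pre-formed 48 h. SKOV3ip1-GFP cells added with compounds (0.36-46 umol/L), incubated 2 h RT/16 h 37 C, fixed; GFP cells quantified at 488/509 nm.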
Potency means the concentration at half of the fitted maximal effect.

Row | Structure (SMILES) | activity change, negative = inhibition | outcome | Potency
1 | COc1cccc(NC(=O)C2CCCN(S(=O)(=O)c3cn(C(C)C)cn3)C2)c1 (stereo not drawn) | inactive: 6.29% |  | 
2 | COC(=O)c1c(-c2ccc(Cl)cc2)noc1N1CCN(c2cc(C)ccc2C)CC1 | inactive: 21.4% |  | 
3 | CCN(CC)S(=O)(=O)c1ccc2c(c1)N(CC(=O)Nc1ccccc1F)C(=O)C1CCCN21 (stereo not drawn) | inactive: -0.192% |  | 
4 | CCCNC(=O)Cn1c(=O)n(CC2CCC(C(=O)NC)CC2)c(=O)c2sccc21 (stereo not drawn) | inactive: 13.9% |  | 
5 | CCOc1cccc(NC(=O)C2CC(=O)N(CC)C(=Nc3ccc(F)cc3)S2)c1 (stereo not drawn) | inactive: 8.01% |  | 
6 | O=C1CS(=O)(=O)C2(C(=O)N(Cc3ccccc3Cl)c3ccccc32)N1c1ccc(F)cc1 (stereo not drawn) | inactive: 4.18% |  | 
7 | Cc1ccc(NC(=O)/C(C#N)=C/c2ccc(-c3ccc(Cl)c(C(=O)O)c3)o2)cc1C | inactive: 5.97% |  | 
8 | Cc1cc(C)c(NC(=O)CSc2ncc3c(n2)-c2cc(Cl)ccc2N(C)S3(=O)=O)c(C)c1 |  | inactive | 
9 | CCC(C)(C)NC(=O)C1CCN(S(=O)(=O)c2ccc3c(c2)CCCN3C(C)=O)CC1 | inactive: 0.459% |  | 
10 | COCCCNC(=O)c1cc2cc(S(=O)(=O)N3CCCCC3)ccc2n1C |  | inactive | 
11 | Cc1cccc(C(=O)Nc2ccc(S(=O)(=O)N3CCC(c4nc5ccccc5s4)CC3)cc2)c1 | inactive: -3.2% |  | 
12 | Cc1ccc2nc(NC(=O)c3nc(SCc4ccccc4F)ncc3Cl)sc2c1 |  | inactive | 
13 | COc1ccc(NC(=O)c2cc(C(C)=O)n3ccccc23)cc1 | inactive: -0.9% |  | 
14 | COc1ccc(NC(=O)c2oc3ccc(S(=O)(=O)N4CCCCC4)cc3c2C)cc1Cl | inactive: 3.01% |  | 
15 | Cc1ccc(CN2CCC(CNC(=O)c3cnn(-c4ccccc4)c3C3CCN(C(=O)OC(C)(C)C)CC3)CC2)cc1 | inactive: 6.19% |  | 
16 | COCCn1c(=O)[nH]c2cc(C(=O)N3CCN(c4ccc(Cl)cc4)CC3)ccc2c1=O | inactive: -9.85% |  | 
17 | O=C(O)c1ccc(NCc2nc3ccccc3n2CCOc2ccccc2Cl)cc1 | inactive: -4.22% |  | 
18 | O=C(CSc1nc(=O)n(Cc2cccnc2)c2c1CCC2)Nc1cccc(Cl)c1 | inactive: -1.91% |  | 
19 | Cc1nc(-c2ccc(Cl)cc2)sc1CCNC(=O)C(=O)Nc1ccc2c(c1)OCCO2 | inactive: -0.354% |  | 
20 | CCOc1cc2[nH]c(=O)n(Cc3ccc(C(=O)N4CCN(c5ccccc5)CC4)cc3)c(=O)c2cc1OCC | inactive: -16% |  | 
21 | CSc1ncc(Cl)c(C(=O)Nc2cc(C(F)(F)F)ccc2Cl)n1 | inactive: -1.56% |  | 
22 | Cc1ccc(-c2nn(-c3ccc(F)cc3F)c3c2cnc2ccc(F)cc23)cc1 | inactive: 4.28% |  | 
23 | COc1ccc(N2CC(NC(=O)C(=O)c3c[nH]c4ccccc34)CC2=O)cc1 (stereo not drawn) | inactive: -9.81% |  | 
24 | COc1ccc(CNC(=O)CC(C)n2nc(C)cc2C)cc1 (stereo not drawn) | inactive: 8.7% |  | 

Row | Structure (SMILES) | activity change, negative = inhibition | outcome | Potency
25 | Cc1cc(C)cc(NC(=O)N2CCC(C(N)=O)(N3CCCCC3)CC2)c1 | inactive: -35.7% |  | 
26 | COc1ccc(N(C)C(=O)c2nn(-c3ccc(C)cc3)c(=O)n(C)c2=O)c(OC)c1 | inactive: 5.12% |  | 
27 | CCOC(=O)N1CCC(NC(=O)c2cnn(-c3ccc(F)cc3)c2-n2cccc2)CC1 |  | inactive | 
28 | CCOCCn1ccc2c(OCC(=O)NCc3ccc(F)cc3)cccc2c1=O |  | inactive | 
29 | CCN1c2ccccc2-n2cccc2C12CCN(C(=O)Nc1ccccc1Br)CC2 | inactive: 8.87% |  | 
30 | CC1CCCN(c2ncnc3c2cnn3-c2ccc(F)cc2)C1 (stereo not drawn) | inactive: -1.46% |  | 
31 | CCCCn1cc(S(=O)(=O)c2ccccc2)c(=O)c2cc(F)c(N3CCN(CCC)CC3)cc21 | inactive: -22.9% |  | 
32 | O=C(CCSCc1cccc(Cl)c1)NCc1ccccc1Cl | inactive: 3.1% |  | 
33 | O=c1c(N2CCN(c3ccccc3)CC2)csc2ccc(Cl)cc12 | inactive: 3.02% |  | 
34 | CC(C)Oc1ccc(C(=O)N2CCN(c3nc4c(F)cc(F)cc4s3)CC2)cc1 | inactive: -3.5% |  | 
35 | O=C(CSc1ncc2c(n1)-c1cc(Cl)ccc1N(Cc1ccccc1)S2(=O)=O)Nc1ccc(F)cc1F |  | inactive | 
36 | Cc1ccccc1-n1c(SCC(=O)Nc2ccc(Cl)cc2Cl)nc(O)cc1=O | inactive: 3.19% |  | 
37 | CC(C)(C)c1ccc(-c2nc(SCCOc3ccc(Cl)cc3)n3[nH]c(=O)cc3n2)cc1 | inactive: -15.1% |  | 
38 | COc1ccc(-c2nc3c4ccccc4n(CC(=O)Nc4ccc(C(C)C)cc4)c(=O)n3n2)cc1 | inactive: 4.2% |  | 
39 | COc1ccc(NC(=O)CSC2=Nc3ccccc3C3=NC(CC(=O)NCc4ccccc4OC)C(=O)N23)cc1Cl (stereo not drawn) | inactive: 5.42% |  | 
40 | COc1ccc(C2CC(=O)N(Cc3ccccc3C)c3c2c(C)nn3-c2nc(C)cc(C)n2)c(OC)c1 (stereo not drawn) | inactive: -1.39% |  | 
41 | COc1ccc(S(=O)(=O)c2c(O)c(C)cc(NS(=O)(=O)c3ccc(Cl)cc3)c2C(C)C)cc1 | inactive: 12% |  | 
42 | COc1ccc(-c2noc(-c3ccc(N4CCN(C)CC4)c([N+](=O)[O-])c3)n2)cc1 | inactive: 8.2% |  | 
43 | CCc1sc(Nc2cccc(C)c2)nc1-c1cc2cccc(OC)c2oc1=O | inactive: -0.164% |  | 
44 | CC(=O)N1CCc2c(sc3c2c(=O)n(-c2ccc(F)cc2)c(=O)n3Cc2cc(C)ccc2C)C1 |  | inactive | 
45 | Cc1ccc(S(=O)(=O)N2CCc3cc(C(=O)N(C)Cc4ccccc4)ccc32)cc1 | inactive: 9.51% |  | 
46 | Cc1cccc(N(C)S(=O)(=O)c2ccc(-c3cc(C)no3)s2)c1 |  | inactive | 
47 | COc1cccc(-n2c(=O)c3c(C)c(C(=O)N(C)C)sc3n(Cc3cccc(C)c3)c2=O)c1 |  | inactive | 
48 | COc1cc(C(=O)N2CCN(CCc3ccncc3)CC2)cc(OC)c1OC | inactive: -1.54% |  | 

Row | Structure (SMILES) | activity change, negative = inhibition | outcome | Potency
49 | COc1ccc(C(CNC(=O)COc2cc(C)cc(C)c2)N2CCCCC2)cc1 (stereo not drawn) | inactive: 10.4% |  | 
50 | COc1ccccc1-n1nc(-c2ccccc2)c2cnc3c(F)cc(F)cc3c21 |  | inactive | 
51 | Cc1ccc(NC(=O)Cn2c(=O)n(CC3CCC(C(=O)NC(C)C)CC3)c(=O)c3sccc32)cc1 (stereo not drawn) | inactive: 0.0812% |  | 
52 | COc1ccc(-c2nc(C)c(CCNC(=O)C(=O)Nc3ccccc3F)s2)cc1 | inactive: -8.3% |  | 
53 | Cc1cccc(NC(=O)CSc2nc3ccccc3nc2N2CCC(C)CC2)c1 | inactive: -5.96% |  | 
54 | CCOc1ccc(N(Cc2ccccc2)C(=O)c2nc(SCC)ncc2Cl)cc1 | inactive: 2.37% |  | 
55 | Cc1nc2c3ccccc3nc(NNC(=O)CCC(=O)N3CCN(c4cccc(Cl)c4)CC3)n2n1 |  | inactive | 
56 | O=C(COc1ccc(F)cc1)Nc1nnc(S(=O)(=O)N2CCc3ccccc32)s1 | inactive: 0.649% |  | 
57 | COc1ccc(S(=O)(=O)N(CC(=O)Nc2ccc(F)c(Cl)c2)c2ccc(C)cc2)cc1OC | inactive: 4.51% |  | 
58 | CC1CCN(C(=O)CSc2c3c(nc4ccc(Cl)cc24)CCCC3)CC1 |  | inactive | 
59 | CN(C)CCN(C(=O)c1ccco1)c1nc2c(F)cc(F)cc2s1 | inactive: -7.25% |  | 
60 | CC1=C(c2ccc(C(C)C)cc2)S(=O)(=O)NC1=NCc1ccccc1C |  | inactive | 
61 | Cc1ccc(NC(=O)CSc2nc3ccc(Br)cc3[nH]2)c(C)c1 | inactive: -8.51% |  | 
62 | Cc1ccc(N2CC(C(=O)NCCS(=O)(=O)N3CCN(c4ccccc4F)CC3)CC2=O)cc1 (stereo not drawn) | inactive: 1.09% |  | 
63 | O=C(Nc1ccc(OC(F)(F)F)cc1)C1CCN(S(=O)(=O)c2ccc3[nH]c(=O)ccc3c2)CC1 |  | inactive | 
64 | Cc1ccc(Nc2cc(C)nc(-n3nc(C)cc3C)n2)cc1 |  | inactive | 
65 | O=C(NC1CCCCC1)c1ccc2c(c1)sc1nc(-c3ccc(F)cc3)cn12 | inactive: -16.3% |  | 
66 | O=C(NC1CCCCC1)c1ccc2c(c1)N(Cc1cccc(F)c1)C(=O)c1ccccc1S2 |  | inactive | 
67 | CCOc1ccc(CNC(=O)c2ccc3c(c2)sc2nc(-c4ccccc4)cn23)cc1 | inactive: 2.15% |  | 
68 | Cn1cnc(S(=O)(=O)N2CCC(C(=O)Nc3ccc(F)cc3F)CC2)c1 | inactive: 0.0512% |  | 
69 | CCOCCc1nnc(NC(=O)C(=O)c2cc(C)n(-c3cccc(C)c3)c2C)s1 | inactive: -2.91% |  | 
70 | Cc1ccc(-c2noc(CNC(=O)COc3cc(C)c(Br)c(C)c3)n2)cc1 | inactive: -26.4% |  | 
71 | COc1ccc2nc(NC(=O)c3nc(S(=O)(=O)Cc4ccccc4F)ncc3Cl)sc2c1 |  |  | active: 7.08 µM
72 | Cc1ccc(-n2nc(C(=O)N3CCN(c4ccc(F)cc4)CC3)c(=O)n(C)c2=O)cc1 | inactive: 13.6% |  | 

Row | Structure (SMILES) | activity change, negative = inhibition | outcome | Potency
73 | CCc1cccc(NC(=O)Cn2c(=O)n(-c3ccccc3C)c(=O)c3c2c2cc(C)ccc2n3C)c1 |  | inactive | 
74 | COc1cc(OC)c(NC(=O)Cn2c(=O)c(C(F)(F)F)nc3ccccc32)cc1Cl | inactive: 87.7% |  | 
75 | Cc1ccc(Cl)cc1-n1c(CCC(=O)O)ccc1-c1cccs1 | inactive: 3.29% |  | 
76 | Clc1ccccc1N1CCN(Cc2nnc(-c3ccccc3)o2)CC1 |  | inactive | 
77 | O=C(Cn1c(=O)n(-c2ccccc2)c(=O)c2ccc(C(=O)NCc3ccc4c(c3)OCO4)cc21)Nc1ccc(F)cc1 | inactive: -3.82% |  | 
78 | COC(=O)c1ccc(CSc2nc3c([nH]c4ccccc43)c(=O)n2-c2ccc(F)cc2)o1 |  | inactive | 
79 | COc1ccc(NCc2cc3cc4c(cc3n(CC(=O)Nc3cccc(F)c3)c2=O)OCO4)cc1 |  | inactive | 
80 | CCOc1ccccc1C(=O)Oc1c(S(=O)(=O)c2ccc(C)cc2)c(C)nn1-c1ccccc1 |  | inactive | 
81 | Cc1cccc(N2CCN(S(=O)(=O)c3cn(C)c(C)n3)CC2)c1C |  | inactive | 
82 | CCCCN(C)CCCNC(=O)Cn1ncc2c3ccccc3n(Cc3cccc(Cl)c3)c2c1=O | inactive: 20% |  | 
83 | COc1ccc(CCCc2nnc(SCC(=O)Nc3cccc(C)c3)o2)cc1C | inactive: 9.88% |  | 
84 | Cc1ccccc1CN1CCc2nc(N3CCN(c4ncccn4)CC3)ncc2C1 | inactive: 4.63% |  | 
85 | CCCCc1nn2c(=O)cc(COC(=O)c3cccc(NC(=O)c4cccc(Cl)c4)c3)nc2s1 | inactive: 2.77% |  | 
86 | Cc1ccc(CNC(=O)c2ccc(CS(=O)(=O)Cc3ccc(F)cc3)o2)cc1 | inactive: -0.429% |  | 
87 | Cc1cccc(CSc2nc3c(c(=O)[nH]2)CCC3)c1 | inactive: 0.627% |  | 
88 | O=C(Nc1ccc(F)cc1F)c1cccc2c1C(=O)N(C1CCCCC1)C2 |  | inactive | 
89 | COc1cccc(-n2c(SCC(=O)N3CCc4ccccc43)nc3c([nH]c4ccccc43)c2=O)c1 | inactive: -27.1% |  | 
90 | COc1cc(NC(=O)CSc2nc(-c3cccs3)cc(C(F)(F)F)n2)cc(OC)c1OC | inactive: 42.4% |  | 
91 | COCCNc1ccc(-c2nc(-c3ccncc3)no2)cc1[N+](=O)[O-] | inactive: -8.2% |  | 
92 | Cc1cc(C(=O)NOCCO)c(Nc2ccc(I)cc2F)n(C)c1=O | inactive: 0.642% |  | 
93 | COc1ccc(OC)c(S(=O)(=O)N2Cc3ccccc3CC2C(=O)Nc2ccc(C)cc2C)c1 (stereo not drawn) | inactive: 2% |  | 
